The values below come from publication PMC4336329 (PLoS ONE, 2015).

Screen size: about 310,000 compounds; about 2,200 (0.71%) showed an effect of 50% or more. The effect is printed as a negative number. The list shows a part of the results.

human ether-à-go-go-related gene (hERG) potassium channel, sequence (Q12809 whole entry, looked up): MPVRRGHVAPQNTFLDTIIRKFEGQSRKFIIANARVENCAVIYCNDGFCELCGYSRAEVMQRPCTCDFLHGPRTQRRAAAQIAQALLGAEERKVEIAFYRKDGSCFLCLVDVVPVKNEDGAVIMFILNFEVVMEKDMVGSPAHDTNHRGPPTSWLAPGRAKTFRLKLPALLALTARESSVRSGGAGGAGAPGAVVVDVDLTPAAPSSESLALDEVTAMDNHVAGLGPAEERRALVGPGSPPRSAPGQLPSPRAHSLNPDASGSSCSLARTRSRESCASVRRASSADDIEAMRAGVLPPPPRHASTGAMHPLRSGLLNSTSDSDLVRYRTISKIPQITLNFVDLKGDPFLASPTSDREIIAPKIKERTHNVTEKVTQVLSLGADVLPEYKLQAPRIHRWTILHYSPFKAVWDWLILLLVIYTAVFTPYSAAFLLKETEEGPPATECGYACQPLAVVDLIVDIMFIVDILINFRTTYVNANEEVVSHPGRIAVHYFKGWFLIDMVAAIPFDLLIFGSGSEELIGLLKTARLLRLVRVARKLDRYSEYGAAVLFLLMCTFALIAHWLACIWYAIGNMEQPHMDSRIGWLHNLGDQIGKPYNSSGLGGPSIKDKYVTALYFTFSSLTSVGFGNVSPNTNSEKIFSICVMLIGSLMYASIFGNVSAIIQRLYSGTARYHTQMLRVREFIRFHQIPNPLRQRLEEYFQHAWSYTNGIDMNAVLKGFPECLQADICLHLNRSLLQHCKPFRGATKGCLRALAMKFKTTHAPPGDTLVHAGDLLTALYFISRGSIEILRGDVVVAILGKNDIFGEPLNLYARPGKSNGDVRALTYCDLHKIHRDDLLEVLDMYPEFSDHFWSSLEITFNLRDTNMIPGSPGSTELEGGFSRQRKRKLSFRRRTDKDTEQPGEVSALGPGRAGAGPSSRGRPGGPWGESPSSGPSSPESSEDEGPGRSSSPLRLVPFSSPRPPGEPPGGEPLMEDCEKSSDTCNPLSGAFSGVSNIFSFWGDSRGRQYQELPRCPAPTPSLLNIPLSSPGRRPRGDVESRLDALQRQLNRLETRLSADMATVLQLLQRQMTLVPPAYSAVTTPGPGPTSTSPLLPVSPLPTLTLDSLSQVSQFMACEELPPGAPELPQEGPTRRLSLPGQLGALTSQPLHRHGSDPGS

This experiment concerns the target human ether-à-go-go-related gene (hERG) potassium channel (human, UniProt Q12809). As to the kind of experiment: primary screen, population patch clamp on CHO cells stably expressing hERG.
`CCc1ccc(NC(=O)CSc2nnc(CNC(=O)c3ccc(OC)cc3)o2)cc1`: the “hERG current change (%, negative = inhibition) at 1uM” value is -3.85%.
For `Cc1cc(/C=C2\SC(=O)NC2=O)c(C)n1-c1ccc(N2CCOCC2)cc1`, the “hERG current change (%, negative = inhibition) at 1uM” value is 12.1%.
Take `COc1cc(OC)cc(C(=O)NNC(=O)CNC(=O)c2ccc(Br)o2)c1`: the “hERG current change (%, negative = inhibition) at 1uM” value is recorded as 8.91%.
Next, `CCCCn1c(=O)c(C(=O)NCCc2ccccc2)c(O)c2ccccc21`: 26.9%; `Cc1oc(-c2ccccc2F)nc1CS(=O)(=O)CC(=O)NC(C)CCc1ccccc1` (stereo not shown): 0.767%.
Next, `Cc1ccc(OCC(=O)OC(C)CN2CCCCC2)cc1.Cl` (stereo not shown): 12%; `COc1cc(C(=O)NCc2nnc(SCC(=O)N3CCCc4ccccc43)o2)cc(OC)c1OC`: 1.86%.
Under `Cc1nc(Cc2nnc(SC(C)C(=O)Nc3cccc(C#N)c3)o2)cs1` (stereo not shown) stands 18.8%; under `Nc1nnnn1N=C1CCCCC1`, -3.38%.
With `CCC(C)(C)n1nnnc1C(c1cc2cc3c(cc2[nH]c1=O)OCO3)N1CCCCC1` (stereo not shown), the “hERG current change (%, negative = inhibition) at 1uM” value is given as -13.2%.
Next, `COc1cc(CC(=O)NCCCc2ccccc2)cc(OC)c1OC`: -22.4%; `Cc1ccc(NC(=O)Cc2ccc3c(c2)OCCO3)cc1S(=O)(=O)N1CCCCC1`: 19.9%.
Under `Fc1ccccc1CN1CCC(Cc2ccccc2)CC1` stands 8.72%.
With `Cn1c(=O)c2c3c(sc2n2c(SCc4ccccc4)nnc12)CCCC3`, the “hERG current change (%, negative = inhibition) at 1uM” value is recorded as 6.74%.
With `CN(C)S(=O)(=O)c1cccc(COC(=O)C2=COCCO2)c1`, the “hERG current change (%, negative = inhibition) at 1uM” value was found to be 13.3%.
With `Cc1cc(NC(=O)c2ccc([N+](=O)[O-])cc2)n(C)n1`, the “hERG current change (%, negative = inhibition) at 1uM” value came out at 16.7%.
Next, `COc1ccc(OC)c(NC(=O)c2cc(-c3cc(Cl)ccc3O)n[nH]2)c1`: 8.16%; `Clc1ccc(Cn2ncc3c(NCc4ccccc4)ncnc32)cc1`: 8.45%.
Under `COC(=O)C1(CCSC)NC(c2ccccc2F)C2C(=O)N(c3ccc4c(c3)OCCO4)C(=O)C21` (stereo not shown) stands 8.33%; under `Cc1ccc(N2CC(C(=O)Nc3cc(C)on3)CC2=O)c(C)c1` (stereo not shown), 6.95%.
Next, `CC1Oc2ccccc2N(CC(=O)NC2CCCCC2)C1=O` (stereo not shown): 13%; `CCCSc1nnc(NC(=O)CCc2ccccc2)s1`: 14.7%; `CCCCCCc1nc(C(N)=O)c2[nH]c(=O)n(-c3ccc(OCC)cc3)c2n1`: 13.4%.
As for `CC(C)Cc1nc(NCCN2CCOCC2)c(C#N)c2c1COC(C)(C)C2`, the “hERG current change (%, negative = inhibition) at 1uM” value is -2.68%.
Next, `CCCCn1c(N)c(N(CCOC)C(=O)Cn2c(=O)cnc3ccccc32)c(=O)[nH]c1=O`: 12.9%.
